These are yes or no findings as the source states them, for the method shown. In cells and extracts the contact can be indirect. Some entries that bind do so weakly or less than the wild type.
Biological target: Msb4_(22-81)–Spa2CRU (Saccharomyces cerevisiae) (UniProt Q12317+P23201)
Assay: split reporter; foldback competition assay with full-length Spa2CRU extended at its N-terminus, Split-Ub as in Fig. 1E (transformants transferred onto 5-FOA medium) (Fig. 3B)

Sequences of proteins named here, by UniProt entry; tags and fusion partners are left off. A change or cut given only in a name is not applied to a line headed by its entry. Residues count along the entry.
UniProt P23201: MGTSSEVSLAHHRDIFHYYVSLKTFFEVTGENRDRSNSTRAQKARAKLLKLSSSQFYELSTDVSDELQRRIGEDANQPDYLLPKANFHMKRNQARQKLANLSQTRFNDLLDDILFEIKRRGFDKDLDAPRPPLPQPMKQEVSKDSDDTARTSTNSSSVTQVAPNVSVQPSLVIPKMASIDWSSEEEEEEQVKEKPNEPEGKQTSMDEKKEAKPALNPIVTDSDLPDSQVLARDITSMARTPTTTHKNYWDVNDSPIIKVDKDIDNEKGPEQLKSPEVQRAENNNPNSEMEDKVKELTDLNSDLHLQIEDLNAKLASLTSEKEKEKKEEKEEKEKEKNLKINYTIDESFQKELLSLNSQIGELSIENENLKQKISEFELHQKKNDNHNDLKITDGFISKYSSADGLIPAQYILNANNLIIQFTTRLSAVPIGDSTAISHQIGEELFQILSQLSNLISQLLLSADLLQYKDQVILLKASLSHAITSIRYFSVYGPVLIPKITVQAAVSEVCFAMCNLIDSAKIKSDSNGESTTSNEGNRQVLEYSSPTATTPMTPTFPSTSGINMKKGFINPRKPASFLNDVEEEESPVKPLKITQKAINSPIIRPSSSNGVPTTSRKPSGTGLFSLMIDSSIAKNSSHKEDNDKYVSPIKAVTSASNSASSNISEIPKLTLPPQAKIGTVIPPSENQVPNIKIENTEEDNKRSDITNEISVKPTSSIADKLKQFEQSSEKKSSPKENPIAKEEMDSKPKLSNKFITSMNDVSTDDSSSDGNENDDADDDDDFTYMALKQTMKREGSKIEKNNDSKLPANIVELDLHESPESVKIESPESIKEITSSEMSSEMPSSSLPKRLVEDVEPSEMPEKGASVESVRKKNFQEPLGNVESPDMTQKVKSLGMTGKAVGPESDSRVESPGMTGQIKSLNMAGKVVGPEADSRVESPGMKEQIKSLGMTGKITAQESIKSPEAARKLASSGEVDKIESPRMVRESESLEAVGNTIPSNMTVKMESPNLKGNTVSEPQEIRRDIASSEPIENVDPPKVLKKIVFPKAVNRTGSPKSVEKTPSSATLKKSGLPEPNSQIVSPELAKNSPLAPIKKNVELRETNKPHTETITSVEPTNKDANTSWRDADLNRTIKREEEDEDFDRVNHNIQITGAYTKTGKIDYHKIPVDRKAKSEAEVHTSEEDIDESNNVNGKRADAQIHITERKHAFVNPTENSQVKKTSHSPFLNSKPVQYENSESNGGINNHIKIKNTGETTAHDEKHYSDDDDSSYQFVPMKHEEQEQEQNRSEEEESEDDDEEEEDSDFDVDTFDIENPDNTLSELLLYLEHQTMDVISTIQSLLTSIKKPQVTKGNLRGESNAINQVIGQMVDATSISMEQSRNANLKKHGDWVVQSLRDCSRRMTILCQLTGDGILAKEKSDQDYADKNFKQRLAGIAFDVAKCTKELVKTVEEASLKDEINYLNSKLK
SHD1CRU: residues 1-124 of P23201
UniProt P43597: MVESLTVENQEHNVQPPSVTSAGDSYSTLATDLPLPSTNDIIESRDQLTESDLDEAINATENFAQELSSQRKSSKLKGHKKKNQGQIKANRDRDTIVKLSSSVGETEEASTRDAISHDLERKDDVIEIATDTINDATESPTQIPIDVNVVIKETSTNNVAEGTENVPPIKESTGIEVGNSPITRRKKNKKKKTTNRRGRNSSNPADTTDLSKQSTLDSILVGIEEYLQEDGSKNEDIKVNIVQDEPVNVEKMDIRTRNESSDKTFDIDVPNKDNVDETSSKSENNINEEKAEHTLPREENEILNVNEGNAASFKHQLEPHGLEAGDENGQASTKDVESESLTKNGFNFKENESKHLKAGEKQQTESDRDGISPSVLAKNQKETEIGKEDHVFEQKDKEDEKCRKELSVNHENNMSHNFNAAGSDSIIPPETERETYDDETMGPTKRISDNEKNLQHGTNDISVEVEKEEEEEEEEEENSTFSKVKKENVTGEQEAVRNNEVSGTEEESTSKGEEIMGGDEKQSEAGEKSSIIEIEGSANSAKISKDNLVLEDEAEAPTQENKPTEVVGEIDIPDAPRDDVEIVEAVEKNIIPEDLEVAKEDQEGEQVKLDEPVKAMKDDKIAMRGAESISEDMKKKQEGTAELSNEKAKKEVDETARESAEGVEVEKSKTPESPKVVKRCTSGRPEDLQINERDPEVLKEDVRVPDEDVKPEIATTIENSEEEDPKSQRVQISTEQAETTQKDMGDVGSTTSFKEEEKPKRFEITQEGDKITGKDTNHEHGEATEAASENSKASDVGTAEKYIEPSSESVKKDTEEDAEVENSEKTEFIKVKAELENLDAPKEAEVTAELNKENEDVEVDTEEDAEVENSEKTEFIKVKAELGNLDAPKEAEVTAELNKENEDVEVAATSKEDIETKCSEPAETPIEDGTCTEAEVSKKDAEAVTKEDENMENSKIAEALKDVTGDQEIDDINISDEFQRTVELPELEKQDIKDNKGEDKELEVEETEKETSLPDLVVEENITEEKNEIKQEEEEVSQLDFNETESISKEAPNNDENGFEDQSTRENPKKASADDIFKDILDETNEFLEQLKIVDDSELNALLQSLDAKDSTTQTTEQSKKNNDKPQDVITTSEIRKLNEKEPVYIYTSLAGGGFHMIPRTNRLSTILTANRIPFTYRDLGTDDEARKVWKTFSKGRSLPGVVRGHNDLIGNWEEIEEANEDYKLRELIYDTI

| binding | Molecule |
| --- | --- |
| binds | Nub fusion of Aip5 (from UniProt P43597 1-1233) |

Biological target: full-length Spa2CRU (Saccharomyces cerevisiae) (UniProt P23201)
Assay: as above

| binding | Molecule |
| --- | --- |
| binds | Nub fusion of Aip5 (from UniProt P43597 1-1233) |

Biological target: SHD1CRU (Saccharomyces cerevisiae) (UniProt P23201)
Assay: split reporter; small-scale Split-Ub: diploid cells co-expressing a Nub and a CRU fusion spotted in 10-fold serial dilutions from OD600=1 on SD medium with 5-FOA, 30°C, 2-5 days

| binding | Molecule |
| --- | --- |
| no binding | Nub–Msb4_(Δ35-39) (protein, UniProt Q12317) MIMSSTMSTEAALVPNESVFDTVSSFNEDDANYSDDDDEGDDSSTVERKEILTTRELEKAKAFTSLIMADPENFDRYGFSKKGYFISQEEYDKWWTEYNRYTERRKKKWENFLLKNKIELHNDNPLVYPARTDELSKFVRKGIPAEWRGNAWWYFAGGQRQLDANVGVYDRLKSDCREGAVSGKDMEAIERDLYRTFPDNIHFHKESFQNGEPAIIRSLRRVLMAFSVYDKTIGYCQSMNFLVGLLLLFMEEEKAFWMLVIITGKYLPGVYESDLEGANVDQGVLVLCIKEYLPEIWSHIESSYMNGNGSTDQISGPASGEEYLCRLPTLTLCTASWFMSCFVGVVPIETTLRIWDCLFYEESHFLFKVALGILKLSESEFLESKSQKLFRQYSSYTFGGSNDSDSTFKRLKNKIKTQEEADMEILQVIQNFPKRLLNPNDIFEKVLMKKKVALNGITQEKIDRGREYVAMARNRQRASSRPKERRK |
| no binding | SSLSQSPCVSSSSSLSTPCIIDAYSNNFGLSPSSTN (peptide, UniProt P06784 100-135) [Nub–Ste7_(100-135)] |
| binds | DTVSSFNEDDANYSVLDLYDDDDEGDDSST (peptide, UniProt Q12317 21-50) [Nub–Msb4_(21-50)] |
| binds | GQASPSEHDGNLSVIDLYGDEVESQRAEGE (peptide, UniProt P48566 71-100) [Nub–Msb3_(71-100)] |
| no binding | Nub–Msb3_(Δ84-88) (protein, UniProt P48566) MQNDQQRFSLQNRTVLAHPYKRLGGAFTVKSPSVPNFHDKMHSDHSSSDSALVNGSFRANDHRSVEPSCLGQASPSEHDGNLSGDEVESQRAEGEDDDDNNGDNGNEDLEEVHSDDLDLVPDDDNRQRVELEGAASATSANSNGINNTHFDRYGFKKQNNYISEAEYDKWWVEYSQYCVRRKHKWQLLLEKSGLPVTDDSPSRFPSKSERLKRYVRKGIPAEWRGNAWWHFARGQEKLNKNKGVYSQLLRKMKQIKKQNPNEKQVQDLDIIERDLNRTFPDNIHFQSSLHNKEGPPIIKSLRRVLVAFSLYNPKIGYCQSMNFLAGLLLLFLDEERAFWMLVIITSRYLPGVHNINLEGVNIDQGVLMLCVKEYIPEVWSYIKPSIDHHQKNNKTFSPSNKKVLFNMQKNEFLYRLPPITLCTASWFMSCFVGVVPIETTLRIWDCLFYEESHFLFKVSLAVLKLSEHDLSKIKPRNNSLNYSWGSNLNQRGGSMGQEDSDMEIFQVIQTFPKTLLNPNEIFEKIIFKRRFNLNRLDQDEIDRCRKFVAAQRLKFKTYGELLGNSTSEADLPINDNTDNKGIHITSDAVNEALSSEVYGFKKSLAGVHWNNSIKEKVKQMRKKKDKGD |
| binds | Nub–Msb3_(D86A) (protein, UniProt P48566 1-633) MQNDQQRFSLQNRTVLAHPYKRLGGAFTVKSPSVPNFHDKMHSDHSSSDSALVNGSFRANDHRSVEPSCLGQASPSEHDGNLSVIALYGDEVESQRAEGEDDDDNNGDNGNEDLEEVHSDDLDLVPDDDNRQRVELEGAASATSANSNGINNTHFDRYGFKKQNNYISEAEYDKWWVEYSQYCVRRKHKWQLLLEKSGLPVTDDSPSRFPSKSERLKRYVRKGIPAEWRGNAWWHFARGQEKLNKNKGVYSQLLRKMKQIKKQNPNEKQVQDLDIIERDLNRTFPDNIHFQSSLHNKEGPPIIKSLRRVLVAFSLYNPKIGYCQSMNFLAGLLLLFLDEERAFWMLVIITSRYLPGVHNINLEGVNIDQGVLMLCVKEYIPEVWSYIKPSIDHHQKNNKTFSPSNKKVLFNMQKNEFLYRLPPITLCTASWFMSCFVGVVPIETTLRIWDCLFYEESHFLFKVSLAVLKLSEHDLSKIKPRNNSLNYSWGSNLNQRGGSMGQEDSDMEIFQVIQTFPKTLLNPNEIFEKIIFKRRFNLNRLDQDEIDRCRKFVAAQRLKFKTYGELLGNSTSEADLPINDNTDNKGIHITSDAVNEALSSEVYGFKKSLAGVHWNNSIKEKVKQMRKKKDKGD |
| no binding | Nub–Msb3_(V84A) (protein, UniProt P48566 1-633) MQNDQQRFSLQNRTVLAHPYKRLGGAFTVKSPSVPNFHDKMHSDHSSSDSALVNGSFRANDHRSVEPSCLGQASPSEHDGNLSAIDLYGDEVESQRAEGEDDDDNNGDNGNEDLEEVHSDDLDLVPDDDNRQRVELEGAASATSANSNGINNTHFDRYGFKKQNNYISEAEYDKWWVEYSQYCVRRKHKWQLLLEKSGLPVTDDSPSRFPSKSERLKRYVRKGIPAEWRGNAWWHFARGQEKLNKNKGVYSQLLRKMKQIKKQNPNEKQVQDLDIIERDLNRTFPDNIHFQSSLHNKEGPPIIKSLRRVLVAFSLYNPKIGYCQSMNFLAGLLLLFLDEERAFWMLVIITSRYLPGVHNINLEGVNIDQGVLMLCVKEYIPEVWSYIKPSIDHHQKNNKTFSPSNKKVLFNMQKNEFLYRLPPITLCTASWFMSCFVGVVPIETTLRIWDCLFYEESHFLFKVSLAVLKLSEHDLSKIKPRNNSLNYSWGSNLNQRGGSMGQEDSDMEIFQVIQTFPKTLLNPNEIFEKIIFKRRFNLNRLDQDEIDRCRKFVAAQRLKFKTYGELLGNSTSEADLPINDNTDNKGIHITSDAVNEALSSEVYGFKKSLAGVHWNNSIKEKVKQMRKKKDKGD |
| binds | Nub–Msb3_(L82Y) (protein, UniProt P48566 1-633) MQNDQQRFSLQNRTVLAHPYKRLGGAFTVKSPSVPNFHDKMHSDHSSSDSALVNGSFRANDHRSVEPSCLGQASPSEHDGNYSVIDLYGDEVESQRAEGEDDDDNNGDNGNEDLEEVHSDDLDLVPDDDNRQRVELEGAASATSANSNGINNTHFDRYGFKKQNNYISEAEYDKWWVEYSQYCVRRKHKWQLLLEKSGLPVTDDSPSRFPSKSERLKRYVRKGIPAEWRGNAWWHFARGQEKLNKNKGVYSQLLRKMKQIKKQNPNEKQVQDLDIIERDLNRTFPDNIHFQSSLHNKEGPPIIKSLRRVLVAFSLYNPKIGYCQSMNFLAGLLLLFLDEERAFWMLVIITSRYLPGVHNINLEGVNIDQGVLMLCVKEYIPEVWSYIKPSIDHHQKNNKTFSPSNKKVLFNMQKNEFLYRLPPITLCTASWFMSCFVGVVPIETTLRIWDCLFYEESHFLFKVSLAVLKLSEHDLSKIKPRNNSLNYSWGSNLNQRGGSMGQEDSDMEIFQVIQTFPKTLLNPNEIFEKIIFKRRFNLNRLDQDEIDRCRKFVAAQRLKFKTYGELLGNSTSEADLPINDNTDNKGIHITSDAVNEALSSEVYGFKKSLAGVHWNNSIKEKVKQMRKKKDKGD |
| no binding | Nub–Msb3_(Y88A) (protein, UniProt P48566 1-633) MQNDQQRFSLQNRTVLAHPYKRLGGAFTVKSPSVPNFHDKMHSDHSSSDSALVNGSFRANDHRSVEPSCLGQASPSEHDGNLSVIDLAGDEVESQRAEGEDDDDNNGDNGNEDLEEVHSDDLDLVPDDDNRQRVELEGAASATSANSNGINNTHFDRYGFKKQNNYISEAEYDKWWVEYSQYCVRRKHKWQLLLEKSGLPVTDDSPSRFPSKSERLKRYVRKGIPAEWRGNAWWHFARGQEKLNKNKGVYSQLLRKMKQIKKQNPNEKQVQDLDIIERDLNRTFPDNIHFQSSLHNKEGPPIIKSLRRVLVAFSLYNPKIGYCQSMNFLAGLLLLFLDEERAFWMLVIITSRYLPGVHNINLEGVNIDQGVLMLCVKEYIPEVWSYIKPSIDHHQKNNKTFSPSNKKVLFNMQKNEFLYRLPPITLCTASWFMSCFVGVVPIETTLRIWDCLFYEESHFLFKVSLAVLKLSEHDLSKIKPRNNSLNYSWGSNLNQRGGSMGQEDSDMEIFQVIQTFPKTLLNPNEIFEKIIFKRRFNLNRLDQDEIDRCRKFVAAQRLKFKTYGELLGNSTSEADLPINDNTDNKGIHITSDAVNEALSSEVYGFKKSLAGVHWNNSIKEKVKQMRKKKDKGD |
| no binding | Nub–Msb3_(I85A) (protein, UniProt P48566 1-633) MQNDQQRFSLQNRTVLAHPYKRLGGAFTVKSPSVPNFHDKMHSDHSSSDSALVNGSFRANDHRSVEPSCLGQASPSEHDGNLSVADLYGDEVESQRAEGEDDDDNNGDNGNEDLEEVHSDDLDLVPDDDNRQRVELEGAASATSANSNGINNTHFDRYGFKKQNNYISEAEYDKWWVEYSQYCVRRKHKWQLLLEKSGLPVTDDSPSRFPSKSERLKRYVRKGIPAEWRGNAWWHFARGQEKLNKNKGVYSQLLRKMKQIKKQNPNEKQVQDLDIIERDLNRTFPDNIHFQSSLHNKEGPPIIKSLRRVLVAFSLYNPKIGYCQSMNFLAGLLLLFLDEERAFWMLVIITSRYLPGVHNINLEGVNIDQGVLMLCVKEYIPEVWSYIKPSIDHHQKNNKTFSPSNKKVLFNMQKNEFLYRLPPITLCTASWFMSCFVGVVPIETTLRIWDCLFYEESHFLFKVSLAVLKLSEHDLSKIKPRNNSLNYSWGSNLNQRGGSMGQEDSDMEIFQVIQTFPKTLLNPNEIFEKIIFKRRFNLNRLDQDEIDRCRKFVAAQRLKFKTYGELLGNSTSEADLPINDNTDNKGIHITSDAVNEALSSEVYGFKKSLAGVHWNNSIKEKVKQMRKKKDKGD |
| binds | Nub–Msb3_(L87A) (protein, UniProt P48566 1-633) MQNDQQRFSLQNRTVLAHPYKRLGGAFTVKSPSVPNFHDKMHSDHSSSDSALVNGSFRANDHRSVEPSCLGQASPSEHDGNLSVIDAYGDEVESQRAEGEDDDDNNGDNGNEDLEEVHSDDLDLVPDDDNRQRVELEGAASATSANSNGINNTHFDRYGFKKQNNYISEAEYDKWWVEYSQYCVRRKHKWQLLLEKSGLPVTDDSPSRFPSKSERLKRYVRKGIPAEWRGNAWWHFARGQEKLNKNKGVYSQLLRKMKQIKKQNPNEKQVQDLDIIERDLNRTFPDNIHFQSSLHNKEGPPIIKSLRRVLVAFSLYNPKIGYCQSMNFLAGLLLLFLDEERAFWMLVIITSRYLPGVHNINLEGVNIDQGVLMLCVKEYIPEVWSYIKPSIDHHQKNNKTFSPSNKKVLFNMQKNEFLYRLPPITLCTASWFMSCFVGVVPIETTLRIWDCLFYEESHFLFKVSLAVLKLSEHDLSKIKPRNNSLNYSWGSNLNQRGGSMGQEDSDMEIFQVIQTFPKTLLNPNEIFEKIIFKRRFNLNRLDQDEIDRCRKFVAAQRLKFKTYGELLGNSTSEADLPINDNTDNKGIHITSDAVNEALSSEVYGFKKSLAGVHWNNSIKEKVKQMRKKKDKGD |
